The values below come from the RNAGym collection of RNA variant scans (doi:10.7554/elife.90254).

The source gives no read counts; variants with many changes may rest on few reads.

B1: LINE1-full (parent)
chain: UACGUAGGUGGUUUUCCCCUGAUAGUGCUAAGGGGGCCUGGAAGUUUGGACUGGGCAGAGCUCAACACAGCGUGGCAAAGUGGCUGUGGCUAGACUGCCUCUCUGGAUUCCUCGUCACUCAGCAGGGCAUCUCUGAGAGAAAUGCC

In this data set the parent is B1. Description: self-cleavage, relative activity (ratio to wild type); higher = more cleavage; in vitro, sequencing; the parent is a self-cleaving ribozyme.
Consider U9C U100C U115C, for which the self-cleavage is 2.3.
Under U14A A59U U91C stands 0.27; under A43G A124U G144A, 1.02; under A67G C68A A94U U96A U132C, 0.02.
Under U15C A69G U73A stands 0.3; under G35A U47C U102C U104A A140G, 2.
For the variant A22G C113A A124G U134C, the self-cleavage was 1.24.
Under A64G U102C C103U stands 0.11.
Under U62C A79U C99A U130C A138U stands 0.03; under U39C U62C G72A A117U, 0.02.
Under G7A C17U A57G A64C stands 0.32; under U14C G32A U85A U115C G125U, 0.1; under U13A A117G U130C, 1.77.
Regarding U20C A43G A78G U104C A121G C123U U132A A136U, the self-cleavage came to 1.53.
Under G35A U81C A121U stands 1.12; under A78U U91C A94U A107G, 0.11; under U9C U39C A77C A140G, 0.28.
As to A31C A57U G74A A78G A124U A136G, the self-cleavage was found to be 0.26.
Under U20C A92U A94C stands 0.11; under U15C A31G U100C A138G, 0.3; under U45A U108C U115A, 1.41.
As to A31G U45G C63U, the self-cleavage is 0.54.
Then A22U G75C A79G, with 0.59; and U1C A69U U100C, with 0.04.
Then G11A A78U U112C, with 1.37; and A57U A69G U81C U96A C118A A138U, with 0.22; and A2G G10A A31C G97A G144A, with 0.53.
In the case of U1C U52A U85C, the self-cleavage was 0.23.
Then U20C A69G U102A, with 0.13; and A2G U45C C110A, with 0.69; and G10A A43G U134C, with 0.52.
Then A43C U96A U104C U112C U132C A142G, with 0; and C16A C19U U109C, with 0.33; and C38G G41A A67G U104A, with 0.24.
Then A24G U109A A142G, with 1.6.
For the variant U45C U52C A59U U96A, the self-cleavage is 0.11.
Under C71U U81A U91A A138G stands 0.43; under G27A A129G A136G, 2.32.
Then G33A U73A A94G, with 0.28.
As to A42U A77U U85A, the self-cleavage was found to be 0.06.
Under U12G U15A A77G A121G G144A stands 1.11.
Under U20A U26C A43U U45C stands 0; under U112C C123A C131U A140G, 1.13; under A78G A129C G139A, 1.87.
Turning to A2G A69G U81C, the self-cleavage was found to be 0.42.
Take C19A A64C U104A U143C: the self-cleavage was 0.15.
Under A64G A65G A136G A141G stands 0.4.
Then G74A A78G A141G U143C, with 1.21.
Under U13C U115A A117G stands 1.7; under U12G A59U U112C, 0.52; under U14C A43G U108C, 0.88.
Turning to U12C U14C U85G, the self-cleavage worked out at 0.47.
Then U45A U104A A124G, with 0.55.
Under U14A U45A A77G A79G A117U stands 1.53.
Then U1G U15C A78U A107U, with 1.56; and U12C A79G A140U, with 1.35.
In the case of U9C U45C U119A A138U, the self-cleavage came to 1.76.
Then U12C C66U A117U, with 0.03.
Under U1C U45C C71U A142G stands 0.88.
Then A59U G93U A107G, with 0.07.
For the variant G83C U104C A140G, the self-cleavage was 1.93.
Turning to U1C U62C A64G, the self-cleavage was found to be 0.
Under U20A G74A A78G stands 0.19; under U47A A57U U87C, 0; under U52C A67U U115A A121U C123U, 0.04.
For the variant U13C A31G A92G A94U U96A U119C, the self-cleavage worked out at 0.66.
Then U1C U5C G97A, with 0.21; and U15C U87C A140G, with 0.1; and U85C A117U G126U A141G, with 0.1.
On to U96A A121G G125C, for which the self-cleavage stood at 0.08.
Under A22G U91A A117G stands 0; under A43U G58U G60A, 0.03; under U62C U73C A124U, 0.08.
Under U12C U39C G137A A140G stands 0.81; under U20C A107G U109A, 1.23.
For the variant U102C U115A A124G, the self-cleavage was determined as 1.04.
Then U12C A117G A129U, with 1.43.
As for A43U U45C U81G, the self-cleavage was found to be 1.08.
For A24G A31G A117G A138G, the self-cleavage is 0.84.
Under U13C U46C A59G A124G U143C stands 0.68; under A65G G86A U102C, 0.03; under A30U U45C U109A A141G U143C, 1.78.
Under U39C A78G A142G stands 0.99; under U87C U91C A140G, 0.19.
Under G54U G80A U87C A94U A117G stands 0.09; under G55U A59G C146U, 0.05; under U47C U130C U143C, 1.79.
As for U87A U112G A121G, the self-cleavage turned out to be 0.
Under G36A U39A A42G A64G stands 0.13; under U20A A94G U96C U119C U143A, 0.
Then A6G U52A A57G U100C, with 1.31.
For U9A U12G A50G A124U, the self-cleavage was 1.04.
Under A2G C17A A78G G97A A121G stands 0.52; under A6G U46A A129G U132A, 0; under U5C U12G G40A U81C U96C U134A, 0.
Under C98G U115C U119C stands 0.5; under G7A A140G U143C, 1.08; under A117U U119A G135A, 1.41.
As to A2U U12G U20C G32C U62A, the self-cleavage was 0.6.
Regarding U47C U96C A138G, the self-cleavage turned out to be 0.15.
Under C28U U46A A65G U115C stands 0.1.
Then U12G U96A C120A A136G, with 0; and U12G A92G U100A A129G, with 0.32.
In the case of U20C U39C A92G G106A A136G, the self-cleavage was 0.07.
Under U13C G33A U109C stands 0.33; under U26C A69G A117G, 0; under U52C C61U A77U, 0.
Under A64G C103U U115C stands 0.26; under U15A A92G U119A, 0.2; under C71U A94G C131U, 0.11.
Then U14C A24G A65U, with 0.36; and G8C U9A A64U U87A U104A A107C, with 0.12.
U20C A92U U119C A138G A141C: the self-cleavage was found to be 0.72.
For U12G U20C A107U U132C U143A, the self-cleavage came out at 1.1.
G8A A117U A129G: the self-cleavage is 1.15.
Under U45A A121G U132C stands 1.55; under U23C U87C A140G, 0.
Under A42U U46C A69G stands 0.42; under A43G A69G U81A U134C, 0.19.
On to A43G A64U U108C A124G, for which the self-cleavage was determined as 0.58.
Under G114A U115C U132C stands 1.8.
Under A43G U45C A57U U62C A65U A124G C128U G139A U143C stands 0; under G41A A59G U102G G105A, 0.1; under G27U A59U U143C, 0.78.
Under A77U U81A A129U stands 1.96.
Regarding G75C U100A A142G, the self-cleavage was 0.31.
Under U9A U23C A57G A107U stands 0; under U39C U46C U52C, 0.81.
Then G33C G36A U45A, with 0.84.
Under A64U U130C A141U stands 0.5; under A78G A138G A141G, 1.55; under A42G A57G U109A, 0.47.
Take U47A U73A U100C U143A: the self-cleavage was found to be 2.64.
On to U20C U62C A136G, for which the self-cleavage amounted to 0.11.
Then U20C G21A A64G, with 0.45.
As for U1A U13C A92G, the self-cleavage was 0.25.
Under A64G A77G U132C A142G stands 0.42; under U15A A31G A67G G80A U81C G97C, 0.25.
Under U13C A22G A117C G122A stands 1.64; under G49A A69U U87G A141G, 0; under A79G U85G U96A A138G, 0.26.
Under U12C C71U U81A U115C A140U stands 1.3.
In the case of U9G A42G U119C, the self-cleavage came out at 0.86.
Then U9A U13C C101U U104C, with 1.14; and A22G A57U C99G, with 0.14; and U13C U45G C131U U143A, with 1.39.
In the case of U15C U39C U85A, the self-cleavage turned out to be 0.02.
Under A64U C113A A129G U132C stands 0.42; under U26A U47C A77U, 1.54; under U12C U15C U52C A67U U109A, 0.38.
Under U47C U62A A64U U132C stands 0.09; under U14C G88A U112C A138C C145A, 0.04; under A78G U112C G125A, 1.55.
For U26C U73A U108C, the self-cleavage amounted to 1.61.
Under A43G A77C A142C stands 0.61.
Under A24U A94G U134C stands 0.84.
As for G7U U20C A77G C95U, the self-cleavage was determined as 0.52.
On to U85C G106C U115A, for which the self-cleavage was determined as 0.16.
In the case of A6U A67G U73A G122U, the self-cleavage came out at 0.61.
Then U14A A92G U102C U132C U143C, with 0; and U12C A22G A79G U134A, with 0.95; and G82A U87C G89A A141G, with 0.02.
On to U1C A77U C128G, for which the self-cleavage is 0.55.
Then U9C U62C U115C, with 0.35.
A2G A24G A31U G41A U46C U119A U130C A141G: the self-cleavage stood at 1.84.
A30G G60C U81C A121G A140U: the self-cleavage amounted to 0.
Then U47A A77C U85C U108C, with 0.12.
